This is one part of the list.

In this assay the target is T1, MBP-FoxP1dN (Mus musculus, UniProt P58462 326-579).
T1 sequence: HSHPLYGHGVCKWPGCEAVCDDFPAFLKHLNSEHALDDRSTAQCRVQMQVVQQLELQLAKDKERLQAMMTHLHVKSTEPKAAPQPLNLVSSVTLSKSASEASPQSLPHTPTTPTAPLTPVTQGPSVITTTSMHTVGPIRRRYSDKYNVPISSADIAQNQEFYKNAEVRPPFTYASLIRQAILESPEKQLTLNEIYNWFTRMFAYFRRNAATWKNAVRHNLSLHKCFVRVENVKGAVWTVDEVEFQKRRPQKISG
The experiment in a line: PD-seq (MBP pull-down with sequencing); 20 mM Tris-HCl pH 7.5, 100 mM NaCl, 1.5 mM MgCl2, 0.4 uM protein, 0.1 uM dsDNA library, 30 min, room temperature, amylose pull-down; high values mean tight binding. The following applies: protein: recombinant; tags: His6-MBP; chain copies: 2; dsDNA, one strand shown. A digest of the protocol: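 His6-MBP-tagged mouse FoxP3 or FoxP1 fragment lacking the N-terminus, expressed in E. coli, was mixed at 0.4 µM with 0.1 µM Klenow-filled double-stranded degenerate DNA library. Incubation was 30 min at room temperature in Tris pH 7.5 buffer with NaCl and MgCl2. Complexes were caught on amylose resin and washed three times; DNA was released with proteinase K, PCR-barcoded and Illumina-sequenced. Binding is reads-per-million enrichment, pull-down over input, with replicates pooled.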
As for “GATGATTGTTCTCCCAGCTGATGAATTTTGATTCTCGAGTAAACAAATTTTCCTAATCTTTCTGTTCAAGCGCCATCTAC”, the binding signal is 0.976 RPM ratio (pull-down/input).
As for “GATGATTGTTCTCCCAGCTGATGAATTAATCGAATCGAGTAAACAAATTTTCCTAATCTTTCTGTTCAAGCGCCATCTAC”, the binding signal was 1.01 RPM ratio (pull-down/input).
The value for “GATGATTGTTCTCCCAGCTGATGAATTCCCCTGATCGAGTAAACAAATTTTCCTAATCTTTCTGTTCAAGCGCCATCTAC” was 0.784 RPM ratio (pull-down/input); that for “GATGATTGTTCTCCCAGCTGATGAATTAGAGTGCTCGAGTAAACAAATTTTCCTAATCTTTCTGTTCAAGCGCCATCTAC” was 0.848 RPM ratio (pull-down/input); that for “GATGATTGTTCTCCCAGCTGATGAATTAGCGGTATCGAGTAAACAAATTTTCCTAATCTTTCTGTTCAAGCGCCATCTAC” was 0.947 RPM ratio (pull-down/input).
Then “GATGATTGTTCTCCCAGCTGATGAATTCACAAGTTCGAGTAAACAAATTTTCCTAATCTTTCTGTTCAAGCGCCATCTAC”, with 0.88 RPM ratio (pull-down/input); and “GATGATTGTTCTCCCAGCTGATGAATTGCTAAAGTCGAGTAAACAAATTTTCCTAATCTTTCTGTTCAAGCGCCATCTAC”, with 1.1 RPM ratio (pull-down/input).
For “GATGATTGTTCTCCCAGCTGATGAATTATCTAAGTCGAGTAAACAAATTTTCCTAATCTTTCTGTTCAAGCGCCATCTAC”, the binding signal is 0.967 RPM ratio (pull-down/input).
The value for “GATGATTGTTCTCCCAGCTGATGAATTACGCATTTCGAGTAAACAAATTTTCCTAATCTTTCTGTTCAAGCGCCATCTAC” was 1.22 RPM ratio (pull-down/input).
Then “GATGATTGTTCTCCCAGCTGATGAATTCTAAGTGTCGAGTAAACAAATTTTCCTAATCTTTCTGTTCAAGCGCCATCTAC”, with 0.925 RPM ratio (pull-down/input); and “GATGATTGTTCTCCCAGCTGATGAATTGGCGACTTCGAGTAAACAAATTTTCCTAATCTTTCTGTTCAAGCGCCATCTAC”, with 0.917 RPM ratio (pull-down/input); and “GATGATTGTTCTCCCAGCTGATGAATTAGGGTCTTCGAGTAAACAAATTTTCCTAATCTTTCTGTTCAAGCGCCATCTAC”, with 0.839 RPM ratio (pull-down/input).
“GATGATTGTTCTCCCAGCTGATGAATTGAAATACTCGAGTAAACAAATTTTCCTAATCTTTCTGTTCAAGCGCCATCTAC”: the binding signal was 0.901 RPM ratio (pull-down/input).
On to “GATGATTGTTCTCCCAGCTGATGAATTGCGATCGTCGAGTAAACAAATTTTCCTAATCTTTCTGTTCAAGCGCCATCTAC”, for which the binding signal is 1.03 RPM ratio (pull-down/input).
Then “GATGATTGTTCTCCCAGCTGATGAATTAGTCGCGTCGAGTAAACAAATTTTCCTAATCTTTCTGTTCAAGCGCCATCTAC”, with 1.01 RPM ratio (pull-down/input); and “GATGATTGTTCTCCCAGCTGATGAATTGAAGGTGTCGAGTAAACAAATTTTCCTAATCTTTCTGTTCAAGCGCCATCTAC”, with 0.823 RPM ratio (pull-down/input).
Consider “GATGATTGTTCTCCCAGCTGATGAATTCGCCGTCTCGAGTAAACAAATTTTCCTAATCTTTCTGTTCAAGCGCCATCTAC”, for which the binding signal was 0.763 RPM ratio (pull-down/input).
Consider “GATGATTGTTCTCCCAGCTGATGAATTTATTCACTCGAGTAAACAAATTTTCCTAATCTTTCTGTTCAAGCGCCATCTAC”, for which the binding signal was 1.16 RPM ratio (pull-down/input).
On to “GATGATTGTTCTCCCAGCTGATGAATTCCAAGAATCGAGTAAACAAATTTTCCTAATCTTTCTGTTCAAGCGCCATCTAC”, for which the binding signal was 0.932 RPM ratio (pull-down/input).
Take “GATGATTGTTCTCCCAGCTGATGAATTCGAGAGCTCGAGTAAACAAATTTTCCTAATCTTTCTGTTCAAGCGCCATCTAC”: the binding signal was 0.759 RPM ratio (pull-down/input).
As for “GATGATTGTTCTCCCAGCTGATGAATTCTAGGTTTCGAGTAAACAAATTTTCCTAATCTTTCTGTTCAAGCGCCATCTAC”, the binding signal was 0.884 RPM ratio (pull-down/input).
On to “GATGATTGTTCTCCCAGCTGATGAATTGACATTGTCGAGTAAACAAATTTTCCTAATCTTTCTGTTCAAGCGCCATCTAC”, for which the binding signal was 1.38 RPM ratio (pull-down/input).
The value for “GATGATTGTTCTCCCAGCTGATGAATTACCGCAATCGAGTAAACAAATTTTCCTAATCTTTCTGTTCAAGCGCCATCTAC” was 1.22 RPM ratio (pull-down/input).
Then “GATGATTGTTCTCCCAGCTGATGAATTTTTAACTTCGAGTAAACAAATTTTCCTAATCTTTCTGTTCAAGCGCCATCTAC”, with 0.922 RPM ratio (pull-down/input); and “GATGATTGTTCTCCCAGCTGATGAATTGTTCCTTTCGAGTAAACAAATTTTCCTAATCTTTCTGTTCAAGCGCCATCTAC”, with 1.07 RPM ratio (pull-down/input).
The value for “GATGATTGTTCTCCCAGCTGATGAATTCTGGATATCGAGTAAACAAATTTTCCTAATCTTTCTGTTCAAGCGCCATCTAC” was 0.967 RPM ratio (pull-down/input); that for “GATGATTGTTCTCCCAGCTGATGAATTCTTCGGATCGAGTAAACAAATTTTCCTAATCTTTCTGTTCAAGCGCCATCTAC” was 0.789 RPM ratio (pull-down/input).
Regarding “GATGATTGTTCTCCCAGCTGATGAATTCTATAATTCGAGTAAACAAATTTTCCTAATCTTTCTGTTCAAGCGCCATCTAC”, the binding signal was 0.944 RPM ratio (pull-down/input).
With “GATGATTGTTCTCCCAGCTGATGAATTAGACCGATCGAGTAAACAAATTTTCCTAATCTTTCTGTTCAAGCGCCATCTAC”, the binding signal was 0.899 RPM ratio (pull-down/input).
Then “GATGATTGTTCTCCCAGCTGATGAATTAGCTTAATCGAGTAAACAAATTTTCCTAATCTTTCTGTTCAAGCGCCATCTAC”, with 0.948 RPM ratio (pull-down/input); and “GATGATTGTTCTCCCAGCTGATGAATTTGCGTGGTCGAGTAAACAAATTTTCCTAATCTTTCTGTTCAAGCGCCATCTAC”, with 0.97 RPM ratio (pull-down/input).

Values taken from article PMC12820563, “FoxP3 forms a head-to-head dimer in vivo and stabilizes its multimerization on adjacent microsatellites”.
